# Source: PMC6919601, “Identification of Plasmodium dipeptidyl aminopeptidase allosteric inhibitors by high throughput screening” (PLoS ONE, 2019)
# Hit rate of the full screen: of about 110,000 compounds, about 230 (0.21%) showed an effect of 50% or more. This is one part of the list. Where a SMILES comes first, the peptide text is derived from it. [ ]: non-standard residue; d: D form. The star is where a group is joined. ξ: configuration not given here. Cbz = O=C(OCc1ccccc1)*; Boc = CC(C)(C)OC(=O)*; ξK = NCCCCC(N)C(=O)O
# Target: DPAP1 (Plasmodium falciparum, UniProt Q8IIJ9)
# Sequence (Q8IIJ9 whole entry, looked up): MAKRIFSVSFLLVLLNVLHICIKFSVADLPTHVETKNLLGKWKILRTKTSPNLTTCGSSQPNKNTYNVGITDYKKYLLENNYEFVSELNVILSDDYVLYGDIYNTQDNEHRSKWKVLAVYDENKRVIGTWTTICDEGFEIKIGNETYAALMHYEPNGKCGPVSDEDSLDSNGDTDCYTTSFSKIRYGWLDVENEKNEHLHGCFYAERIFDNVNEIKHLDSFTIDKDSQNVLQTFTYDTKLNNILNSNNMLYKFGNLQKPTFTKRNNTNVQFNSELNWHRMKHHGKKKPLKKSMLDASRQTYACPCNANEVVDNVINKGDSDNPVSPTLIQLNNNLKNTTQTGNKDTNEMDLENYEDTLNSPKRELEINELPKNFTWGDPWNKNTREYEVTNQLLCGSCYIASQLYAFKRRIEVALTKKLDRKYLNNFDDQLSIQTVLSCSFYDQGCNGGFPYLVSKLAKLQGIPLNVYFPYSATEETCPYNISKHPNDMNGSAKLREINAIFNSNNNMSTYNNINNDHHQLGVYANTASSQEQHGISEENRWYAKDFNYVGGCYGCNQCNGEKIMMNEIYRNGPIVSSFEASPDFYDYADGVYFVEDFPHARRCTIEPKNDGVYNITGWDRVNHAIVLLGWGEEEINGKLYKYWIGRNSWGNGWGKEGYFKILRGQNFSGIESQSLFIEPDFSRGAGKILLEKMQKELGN
# Experiment: primary screen, percent inhibition; read by cleavage of a fluorogenic dipeptide substrate; higher = more effect of the substance
# Design: species or system P. falciparum D10 trophozoite lysates; single well
# 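Also: 30 min substrate incubation versus DMSO and 10 µM JCP410 controls.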
row,Compound,% Inhibition @ 10 uM
1,COc1cc(OC)c(OC)cc1CN1CCN(Cc2ccccc2Br)CC1,-9.68%
2,CCC1CCCCN1CCCNC(=O)c1ccc(CS(=O)(=O)c2ccc(Br)cc2)o1 (stereo not drawn),-1.28%
3,CC(C)(C#Cc1ccc(Br)cc1)OC(=O)Nc1ccccc1,11.7%
4,COc1cc(OC)cc(C2=N/C(=C\c3ccc(OC)c(OC)c3)C(=O)O2)c1,-7.76%
5,CCOC(=O)N1CCN(CC(O)COc2ccc(Cl)c(C)c2)CC1 (stereo not drawn),0.291%
6,COC(=O)c1cc2c(s1)CN(Cc1ccc(Cl)cc1)C2,-2.14%
7,CCN(CC)C(=O)C1CCCN(C2CCN(C)CC2)C1 (stereo not drawn),-1.81%
8,O=C(Nc1ccc(Oc2ccc3ccccc3c2)cc1)c1ccco1,2.38%
9,c1ccc2c(c1)nc1n2C2(N3CCOCC3)CCCCC2C1N1CCOCC1 (stereo not drawn),-2.82%
10,CCCCCc1ccc(-c2ccc(/C=C/C(=O)NC(C)c3ccccc3)cc2)nc1 (stereo not drawn),1.13%
11,CC(C)CCNc1nc2ccccc2n2nnnc12,2.76%
12,O=c1oc(-c2cccs2)nc2sc3c(c12)CCCC3,-5.11%
13,CCN(CC)C(=O)CSc1nc2c(C)c(C)ccc2[nH]1,0.907%
14,COC(=O)C1=C(C)N(C)C(=O)/C1=C\c1ccccc1,3.43%
15,CN1CCN(Cc2nc3c(c(=O)n(C)c(=O)n3C)n2Cc2c(F)cccc2Cl)CC1,-6.06%
16,Cc1cc(C)c(NC(=O)CN2CCN3CCCC3C2)c(C)c1 (stereo not drawn),2.38%
17,CC(Oc1ccc(F)cc1)C(=O)Nc1sc2c(c1C(N)=O)CCC2 (stereo not drawn),2.44%
18,Cn1c(C(=O)N2CCOCC2)cc2sccc21,0.291%
19,CCCS(=O)(=O)n1nc(-c2ccc(C)cc2)cc1N,-5.76%
20,O=C1CC(N2CCN(Cc3ccc4c(c3)OCO4)CC2)C(=O)N1c1ccc(Cl)c(Cl)c1 (stereo not drawn),-2.6%
21,Cc1cc(C)c2c(n1)nn1c(C)c(CCC(=O)NCc3cccc(Cl)c3)c(C)nc21,-8.02%
22,COC(=O)c1cc(S(=O)(=O)/C=C/c2ccccc2)c(Cl)cc1Cl,0.275%
23,O=[N+]([O-])c1ccc(Sc2cccs2)c([N+](=O)[O-])c1,3.34%
24,CCOC(=O)c1cc(O)nc2ccccc12,3.04%
25,Cc1cc(Cl)ccc1OCC(=O)Nc1cccc(C#N)c1,-7.25%
26,CC(C)N1CN(c2nc3ccccc3s2)CN(c2nc3ccccc3s2)C1,-3.53%

row,Compound,% Inhibition @ 10 uM
1,O=C(/C=C/c1ccc2c(c1)OCO2)Nc1ccc(Cl)cc1,-7.8%
2,COc1ccc(CNc2nc3c(C)cc(C)cc3s2)cc1,0.627%
3,O=C(NCc1ccc(Cl)cc1)c1ccc(CS(=O)(=O)c2cccc(C(F)(F)F)c2)o1,-3.32%
4,O=C(c1cccs1)N1CCN(c2ccc(Cl)cc2)CC1,-5.14%
5,CCN(CC)S(=O)(=O)c1cc(C(=O)Nc2ccc(C(=O)O)cc2)ccc1C,-7.32%
6,Cc1cccc(C)c1NC(=O)CCC(=O)O,-0.216%
7,N#Cc1c(-n2ncnc2-c2cccnc2)sc2c1CCCCC2,0.392%
8,O=C1NC(=O)C(=Cc2ccc3c(c2)OCO3)C(=O)N1,-0.902%
9,c1ccc(C[n+]2cccc(-c3ccccc3)c2)cc1,6.27%
10,CC(=O)NC12CC3CC(C1)C(=O)C(C3)C2,-2.78%
11,Cn1cccc1Cc1nnc(SCC(N)=O)n1-c1ccccc1,5.32%
12,CC(=O)Nc1ccc(NC(C)=O)c2ccccc12,3.53%
13,CN1CCCN(Cc2ccc([N+](=O)[O-])cc2)CC1,-5.41%
14,Cc1ccc(C/N=C(\N)Nc2nc(C)cc(C)n2)cc1,1.37%
15,COc1cccc(-c2cc(C(F)(F)F)n3ncc(C(=O)NC4CCCC4)c3n2)c1,8.92%
16,COCCN1C2=C(C(=O)CC(C)(C)C2)C(c2ccc(OC)c(C(=O)O)c2)C2=C1CC(C)(C)CC2=O,-1.63%
17,Clc1ccc(OCCN2CCCCC2)c2ccccc12,1.57%
18,Cc1ccc2oc(-c3cccc(NC(=O)CC(C)C)c3)nc2c1,2.45%
19,Cc1ccc(-n2nc(C)c(/C=N/Cc3ccccc3)c2O)cc1C,4.97%
20,COc1ccc(-c2cc(C)no2)cc1S(=O)(=O)Nc1ccc(C)cn1,4.36%
21,CN1CC(=O)N(C)c2ncn(C)c2C1=O,0.0538%
22,COc1ccc(NS(=O)(=O)c2ccc(NC(=O)COc3ccc(Br)cc3)cc2)cc1,-10.2%
23,Cc1cc(N2CCC(C(=O)N3CCN(C)CC3)CC2)n2nc(C)c(-c3ccc(Cl)cc3)c2n1,-7.53%
24,CC#CCCOc1nc(Cl)cn(-c2ccccc2)c1=O,-4%
25,Cc1ccc(-c2nnc(SCC(=O)NC3CCCCC3)n2C)c(Cl)c1,6.73%
26,COc1ccc2nc(N(CCN(C)C)C(=O)CCc3ccccc3)sc2c1,-4.73%

row,Compound,% Inhibition @ 10 uM
1,CCC12CN3CC(C)(CN(C1)C3c1ccc(OC)c(OC)c1)C2=O (stereo not drawn),2.05%
2,Cc1ccccc1-n1nc2c(c1NC(=O)C(C)Oc1ccccc1)CS(=O)(=O)C2 (stereo not drawn),-1.28%
3,CC1(N2CCCCC2)C(=O)c2ccccc2C1=O,-1.84%
4,c1ccc(-n2nnnc2CSc2nc3ccccc3s2)cc1,2.19%
5,CN(C)C(=O)N1CCC(C(=O)NCc2cccs2)CC1,-3.12%
6,CC1SC2(C(=O)Nc3ccccc32)N(c2cccc(Cl)c2)C1=O (stereo not drawn),2.01%
7,Cc1cc(C)c(S(=O)(=O)NCC(=O)NC2CC2)c(C)c1,-0.992%
8,CCOc1ccccc1/C=C(\C#N)c1nc(-c2ccc(-c3ccccc3)cc2)cs1,-2.32%
9,COc1cc(C2SC(NC(C)=O)=NN2C(C)=O)ccc1OCc1ccccc1 (stereo not drawn),26.2%
10,O=C(Nc1ccccc1)OC[C@@H]1CCCN2CCCC[C@H]12,-2.42%
11,CCNC(=O)C1CCCN1S(=O)(=O)c1ccc(OC)cc1 (stereo not drawn),-4.64%
12,CC(C)(C)OC(=O)N1CCc2[nH]ncc2C1,-2.83%
13,COCCNC(=O)CCc1c(C)nc2nc(-c3cc(OC)cc(OC)c3)nn2c1C,1.26%
14,O=C(NCCc1ccccc1)c1cccnc1Cl,0.0504%
15,O=C(c1ccccc1F)N(Cc1ccccc1)Cc1ccccc1,1.41%
16,CNc1cc(-n2cccn2)nc(-c2ccccc2)n1,4.22%
17,O=C1CC(Cc2ccc(Cl)cc2)C(=O)N1c1ccccn1 (stereo not drawn),19.4%
18,O=C(O)c1cccc(N2C(=O)c3ccc4c5c(ccc(c35)C2=O)CC4)c1,10.6%
19,COc1ccccc1-n1cnc2cc(C(=O)NC3CCCCCC3)ccc21,8.71%
20,Cc1cc(C)c2c(n1)nn1c(C)c(CCC(=O)NC(C)c3ccccc3)c(C)nc21 (stereo not drawn),0.953%
21,CN1c2ccccc2Sc2cc(N)ccc21,-1.32%
22,CO/C(O)=C1\C(C)=NC2=C(C(=O)CCC2)C1c1cccc(Br)c1 (stereo not drawn),-5.59%
23,CCOC(=O)c1c(N)n(CCO)c2nc3ccccc3nc12,4.54%
24,Cc1ccc(-c2nnc3[nH]c(=O)n(C)c(=O)c3n2)cc1,-1.11%
25,CCC[C@H](N[C@H](C(=O)NCC1CCCCC1)c1ccc(-c2ccc(S(C)(=O)=O)cc2)cc1)C(=O)NC1(C#N)CC1,-8.26%
26,CC(=O)Nc1ccc(S(=O)(=O)NCCc2ccccc2)cc1,-14.2%

row,Compound,% Inhibition @ 10 uM
1,Nc1c(C(=O)c2ccc(Br)cc2)sc2nc3c(cc12)CCC3,-3.72%
2,CCOC(=O)c1cc(CC)sc1/N=C/C1C(=O)c2ccccc2C1=O,-3.37%
3,Cc1ccc(S(=O)(=O)N(CC(=O)Nc2ccc3c(c2)OCO3)Cc2ccc(Cl)cc2)cc1,0.142%
4,O=C(/N=C/Nc1cccnc1)c1cccc(COCC(F)(F)F)c1,0.413%
5,CC1CCN(C(=O)CN2C(=O)C(=O)c3ccccc32)CC1,-3.41%
6,c1ccc(C2CCC(N3CCN(c4ccccn4)CC3)CC2)cc1 (stereo not drawn),1.57%
7,Cc1nc2nc(C)c(CCC(=O)N3CCN(c4ccccn4)CC3)c(C)n2n1,-8.27%
8,Cc1sc2ncn3nnnc3c2c1-c1ccc(Cl)cc1,-1.6%
9,Cc1ccccc1CCNCc1ccc(C(=O)O)s1,0.124%
10,CC1CCCCC1NCc1c(C(=O)O)n(Cc2ccccc2)c2ccccc12 (stereo not drawn),3.54%
11,CCc1nonc1NC(=O)COc1ccc(Cl)c(C)c1,1.67%
12,Cc1cc(C)c2oc(C(=O)Nc3nnc(C(C)C)s3)cc(=O)c2c1,53.6%
13,CCOCCCNC(=O)C1CCN(c2nnc(N3CCCC3=O)s2)CC1,2.07%
14,CCCc1[nH]nc2c1C(c1ccc(Br)c(F)c1)C(C#N)=C(N)O2 (stereo not drawn),-4.4%
15,CC(C)(C)OC(=O)NC(CCCCNC(=O)OCc1ccccc1)C(=O)NCC(=O)NCC(=O)O (stereo not drawn) (Boc-[ξK](Cbz)-Gly-Gly-OH),-3.64%
16,Cc1cc(C(=O)NC(C)c2ccccc2)n(-c2ccccc2)n1 (stereo not drawn),1.55%
17,C/C=C/N1C(=S)NC2(O)c3ccccc3C(=O)C12O (stereo not drawn),-2.87%
18,O=C(Nc1nnc(Cc2ccc(Cl)cc2)s1)C1c2ccccc2Oc2ccccc21,5.17%
19,c1ccc(CCN2CN(Cc3cccnc3)c3nc4ccccc4n3C2)cc1,4.33%
20,CC(C)CNS(=O)(=O)c1ccc(OCC(=O)Nc2cccc3ccccc23)c(Cl)c1,1.17%
21,COc1cccc(N/C=C(/C#N)c2nc(-c3ccc(Cl)cc3)cs2)c1,-9.12%
22,CCn1c(C)c(C)c2cc(C(=O)NCCCN3CCc4ccccc4C3)ccc21,-7.04%
23,CCOc1ccc2[nH]c(SCC(=O)Nc3cc4c(cc3C(C)=O)OCO4)nc2c1,4.81%
24,Cc1ccc(OCCOc2ccc(/C=C3/C(=N)N4C=CSC4=NC3=O)cc2Cl)cc1,-3.28%
